According to PubChem BioAssay AID1671194 (National Center for Advancing Translational Sciences (NCATS), 2021):
The whole screen tested about 140,000 compounds, of which about 240 (0.17%) were called active. This list was built around the results that the source calls inconclusive (neither active nor inactive); the mix of calls is not that of the screen. Calls follow the shape of the dose curve; as a rule, active = well fitted inhibition curve with a large enough effect; inconclusive = small, poorly fitted or top-dose-only effect; inactive = no such curve, though single readings can be large or run the other way. A potency beside an inconclusive call is a rough fit, not a confirmed value.

assay: Primary qHTS assay for inhibitors of alpha-synuclein gene (SNCA) expression; settings: HEK-293 SNCA-luciferase knock-in, luminescence, 24 h; activity change, negative = inhibition: at 57.2 µM (top of the series) unless noted; also: nearly all actives have a fitted effect of over 45% in size;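 as to activity change, negative = inhibition: plate controls were DMSO cells for no effect and cell-free wells for full effect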
Potency is read from the fitted curve at half-maximal effect; tags tell the direction and shape of the fitted curve.

SMILES	Potency	activity change, negative = inhibition
CC1=C(C(=O)Nc2ccc(Cl)cc2)C(c2ccc(C(F)(F)F)cc2)n2nnnc2N1 (stereo not given)	inconclusive: 22.4 µM [inhibitor, partial curve, poor fit]	
O=C(Nc1cccnc1)c1nc2c(o1)CCN(CCCc1ccccc1)CC2		inactive: 1.52% [at 87.6 µM]
CCc1ccccc1NC(=O)CSc1ncc(S(=O)(=O)c2ccc(C(C)C)cc2)c(N)n1	inconclusive: 39.8 µM [inhibitor, single point]	
CCN1C(=O)C2(CCN(S(=O)(=O)c3cc(F)ccc3OC)CC2)c2ccccc21	inconclusive: 39.8 µM [inhibitor, single point]	
CCc1nc2c(c(-c3ccc(O)cc3)n1)CCN(Cc1ccccc1C(F)(F)F)CC2		inactive: -22%
O=C1c2[nH]nc(-c3ccccc3O)c2C(c2ccc(F)cc2)N1CCO (stereo not given)	inconclusive: 7.08 µM [inhibitor, single point]	
Cc1cnc(CC2CC(=O)N(c3ccccc3)C2)nc1N(C)C (stereo not given)		inactive: -29.6%
COc1cccc(N2C(=O)NC(=NC3CCCCC3)C23CCCN(CC2CCCCC2)C3)c1 (stereo not given)	inconclusive: 14.1 µM [inhibitor, partial curve, poor fit]	
Cc1cc2nc3n(c(=O)c2n1CC(=O)NCCCc1ccccc1)CCCC3	inconclusive: 3.98 µM [inhibitor, single point]	
CCCC1=Nc2cc(C(=O)NCCc3ccc(OC)c(OC)c3)ccc2Sc2ccc(C)cc21	inconclusive: 39.8 µM [inhibitor, single point]	
CCc1cc(=O)n(CC(=O)Nc2ccccc2C)c(-c2cccc(F)c2)n1	inconclusive: 22.4 µM [inhibitor, single point]	
COc1ccc(CCNC(=O)c2ccc3c(c2)N(Cc2ccccc2C)C(=O)c2ccccc2S3)cc1OC	inconclusive: 15.8 µM [inhibitor, partial curve, poor fit]	
COc1ccc(CN2CCCn3nc(C)c(-c4ccccc4Oc4ccccc4)c32)cc1O	active: 6.31 µM	
COc1ccc(NC(=O)Nc2cccc(-c3ccc(N4CCC(C)CC4)nn3)c2)cc1OC	inconclusive: 3.16 µM [inhibitor, partial curve, poor fit]	
Cc1nn(CC(=O)N2CCN(c3cccc(C(F)(F)F)c3)CC2)c(=O)c2cccn12	inconclusive: 20 µM [inhibitor, single point]	
COC(=O)c1sccc1S(=O)(=O)N(CC(=O)NCc1ccc(F)cc1)c1ccc(Cl)cc1	inconclusive: 39.8 µM [inhibitor, single point]	
COc1ccccc1NC(=O)Cn1c(N2CCC(C)CC2)nc(C)cc1=O	inconclusive: 7.94 µM [inhibitor, single point]	
O=c1n(CC2CC2)nc2n1CCN(Cc1ccc3[nH]ccc3c1)CC2		inactive: 1.69%
Fc1ccc(-c2cn3cc(Cc4ccccc4)sc3n2)cc1		inactive: -74.1%
COc1ccc(NC(=O)CSc2nc(-c3ccco3)cc(C(F)(F)F)n2)cc1Cl	inconclusive: 2 µM [inhibitor, partial curve, poor fit]	

SMILES	Potency	activity change, negative = inhibition
Cc1cc(NC(=O)C(C)(C)Oc2nn(CCOc3ccccc3)c3ccccc23)n(C)n1	inconclusive: 56.2 µM [inhibitor, single point]	
CCCCS(=O)(=O)c1nc(-c2ccc(Br)cc2)cc(-c2ccccc2)c1C#N	inconclusive: 25.1 µM [inhibitor, partial curve, poor fit]	
COc1cccc(-c2cc(C3CCN(C(=O)Nc4cccc(Cl)c4C)CC3)[nH]n2)c1	inconclusive: 39.8 µM [inhibitor, single point]	
COc1ccc(C2(C(=O)NC3CCCc4c3[nH]c3ccccc43)CCOCC2)cc1 (stereo not given)		inactive: -8.21%
Cn1nnc2c(N3CCN(c4cccc(C(F)(F)F)c4)CC3)ncnc21		inactive: 73.7%
CC(=O)N1CCC(NC[C@@H]2C=C(C)[C@H](Cc3nc4ccc(C)cc4[nH]3)C[C@H]2C(C)C)CC1		inactive: 18.2%
CCSc1nn(CC(=O)Nc2ccc(C(=O)OC)cc2)c(N)c1S(=O)(=O)c1ccc(C)cc1	inconclusive: 39.8 µM [inhibitor, single point]	
COc1ccccc1CN1CCC(CNC(=O)c2cnn(-c3ccc(C)c(C)c3)c2C2CCN(C(=O)OC(C)(C)C)CC2)CC1	inconclusive: 39.8 µM [inhibitor, single point]	
CC(C)CCN1CCC(N2CCN(C(=O)c3ccc(Cl)s3)CC2)C1=O (stereo not given)		inactive: -20.5%
Cc1cc(OCC(=O)NCC2(N3CCOCC3)CCCCC2)ccc1Cl	inconclusive: 8.91 µM [inhibitor, partial curve]	
COc1ccccc1-n1c(=O)c(C(=O)N2CCN([S+](=O)([O-])c3ccc(C)cc3)CC2)nc2cccnc21		inactive: 1.12%
COc1ccccc1-c1nnc(SCC(=O)c2ccc(F)cc2)n1-c1ccccc1	inconclusive: 39.8 µM [inhibitor, single point]	
COCCn1c(C)cc(C(=O)N2CCCC(c3[nH]ccc3C(N)=O)C2)c1C (stereo not given)	inconclusive: 39.8 µM [inhibitor, single point]	
Cc1noc2c(N3CCC(c4ccccc4)CC3)cc(-c3cccnc3)nc12	inconclusive: 3.98 µM [inhibitor, full curve, poor fit]	
Cc1ccc(C(=O)N2CC[C@H](CO)[C@H](N(C)C)C2)s1	inconclusive: 39.8 µM [inhibitor, single point]	
COc1ccnc(-c2nnc3ccc(Nc4cc(OC)c(OC)c(OC)c4)nn23)c1		inactive: -5.16% [at 87.6 µM]
COc1ccccc1NC(=O)c1cc(S(=O)(=O)N2CCc3ccccc32)ccc1F	inconclusive: 39.8 µM [inhibitor, single point]	
COc1ccc(CNC(=O)c2ccc3c(c2)N(C)C2CCCN2C3=O)c(OC)c1 (stereo not given)	inconclusive: 0.708 µM [inhibitor, full curve, poor fit]	
CNC(=O)c1cc[nH]c1C1CCCN(C(=O)CCc2c[nH]c3ccccc23)C1 (stereo not given)	inconclusive: 12.6 µM [inhibitor, partial curve, poor fit]	
O=C(Nc1ccc2nnc(-c3ccc(C(=O)N4CCCCC4)cc3)n2c1)C1CCC1	inconclusive: 39.8 µM [inhibitor, single point]	
